# Paper PMC4336329 (PLoS ONE, 2015)
# Hit rate of the full screen: of about 310,000 compounds, about 14,000 (4.5%) showed an effect of 50% or more. The effect is printed as a negative number. The list shows a part of the results.
# Target: human ether-à-go-go-related gene (hERG) potassium channel (human, UniProt Q12809)
# Assay: primary screen, population patch clamp on CHO cells stably expressing hERG
# 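Also: peak tail current of the secondary pulse compared with the same well before compound.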
# Sequence of human ether-à-go-go-related gene (hERG) potassium channel (Q12809 whole entry, looked up): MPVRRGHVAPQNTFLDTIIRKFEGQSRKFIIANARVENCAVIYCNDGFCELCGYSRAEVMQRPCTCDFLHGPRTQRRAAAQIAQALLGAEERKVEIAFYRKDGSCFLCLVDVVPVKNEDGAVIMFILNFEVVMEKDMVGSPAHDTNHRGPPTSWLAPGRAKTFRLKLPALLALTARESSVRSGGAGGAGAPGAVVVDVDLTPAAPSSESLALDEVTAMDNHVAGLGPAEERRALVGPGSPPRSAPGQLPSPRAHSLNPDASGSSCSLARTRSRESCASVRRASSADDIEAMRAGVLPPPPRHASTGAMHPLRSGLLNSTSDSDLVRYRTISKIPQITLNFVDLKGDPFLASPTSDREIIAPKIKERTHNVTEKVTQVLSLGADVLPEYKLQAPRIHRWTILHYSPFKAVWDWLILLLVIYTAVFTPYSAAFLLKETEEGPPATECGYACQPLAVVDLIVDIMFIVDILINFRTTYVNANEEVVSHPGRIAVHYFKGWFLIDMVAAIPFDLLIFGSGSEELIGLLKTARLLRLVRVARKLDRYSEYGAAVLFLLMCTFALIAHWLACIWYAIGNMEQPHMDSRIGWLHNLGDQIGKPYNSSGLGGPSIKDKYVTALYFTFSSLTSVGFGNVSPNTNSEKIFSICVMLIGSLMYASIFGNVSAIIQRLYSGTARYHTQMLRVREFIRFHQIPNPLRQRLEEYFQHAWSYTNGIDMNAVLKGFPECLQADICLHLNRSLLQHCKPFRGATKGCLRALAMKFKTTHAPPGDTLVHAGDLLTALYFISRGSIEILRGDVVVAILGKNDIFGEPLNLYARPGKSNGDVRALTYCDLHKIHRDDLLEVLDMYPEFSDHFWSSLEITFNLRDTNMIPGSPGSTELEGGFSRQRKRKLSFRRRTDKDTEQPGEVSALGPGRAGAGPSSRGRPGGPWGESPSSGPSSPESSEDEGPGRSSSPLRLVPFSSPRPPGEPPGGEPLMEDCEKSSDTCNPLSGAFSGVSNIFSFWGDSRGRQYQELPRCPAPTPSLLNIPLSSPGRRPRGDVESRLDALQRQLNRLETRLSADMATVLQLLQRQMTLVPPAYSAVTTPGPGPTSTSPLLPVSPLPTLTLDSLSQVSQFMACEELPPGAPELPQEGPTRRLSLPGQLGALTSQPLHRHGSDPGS
row,Structure (SMILES),"hERG current change (%, negative = inhibition) at 10uM"
1,Cc1cc(Nc2ccc(O)cc2)n2c(nc3ccccc32)c1C#N,16.6%
2,CCNC(=O)COc1ccc2ccccc2c1,15.6%
3,Cc1nccn1CC(=O)N/N=C/c1c[nH]c2ccccc12,9.88%
4,CC(=O)c1ccc(N2CCN(CC(O)COCc3ccco3)CC2)cc1 (stereo not drawn),-56.3%
5,Cc1cc(C)nc(N(C#N)Cc2ccccc2)n1,-4.34%
6,COc1ccccc1C(=O)NC(=O)COC(=O)c1cccc(OC(F)F)c1,-22.5%
7,COc1ccc(CC(=O)N(C)CC(=O)Nc2cccc(F)c2)cc1S(=O)(=O)N1CCOCC1,13.7%
8,OC(CCN1CCOCC1)(c1ccc(Cl)cc1)C1CCCCC1 (stereo not drawn),-18.6%
9,FC(F)(F)c1nnc2c3ccccc3c(Cl)nn12,21.6%
10,CC(C)OC(=O)Nc1ccc2c(c1)N(C(=O)N1CCN(C)CC1)c1ccccc1CC2.O=C(O)C(=O)O,-17.9%
11,COc1cccc(CN2CCNC(=O)C2CC(=O)NCc2cn3ccccc3n2)c1OC (stereo not drawn),32%
12,O=C(N1CCOCC1)N(Cc1ccco1)CC1CCCO1 (stereo not drawn),-48.5%
13,Cc1onc(-c2c(Cl)cccc2Cl)c1C(=O)NCCN1CCOCC1,9.36%
14,Cn1c(SCC(=O)NCC2CCCO2)ncc(C(=O)Nc2ccc(Cl)cc2)c1=O (stereo not drawn),-36.3%
15,O=C(Cn1nnnc1CN1CCOCC1)N1CCC(c2cccc(Cl)c2)C1 (stereo not drawn),1.15%
16,O=C(Nc1ccccc1)c1nccn1Cc1ccc(F)cc1,-10.9%
17,CC(=O)N1N=C(c2ccccc2)CC1c1cn(Cc2ccccc2)c2ccccc12 (stereo not drawn),-13.6%
18,Cc1ccc(OCC(=O)Nc2ccc(N3CCN(S(C)(=O)=O)CC3)cc2)c(C)c1,10.9%
19,Cc1ccc(N(C(=O)CNC(=O)c2cccs2)C(C(=O)NC2CCCC2)c2ccncc2)cc1 (stereo not drawn),9.41%
20,O=C(CSc1nnc(-c2cccs2)n1C1CC1)NC1CCS(=O)(=O)C1 (stereo not drawn),-6.43%
21,O=C(NCCN1CCOCC1)[C@H](Cc1ccccc1)N1C(=O)c2ccccc2C1=O,-2.06%
22,O=C(NNC(=O)c1csc(N2CCOCC2)n1)c1cccnc1,4.3%

row,Structure (SMILES),"hERG current change (%, negative = inhibition) at 10uM"
1,CCN1CCN(CCNC(=O)c2ccc3nc(-c4cccc(C)c4)c(-c4cccc(C)c4)nc3c2)CC1,-73.9%
2,CC(=O)c1ccc(NC(=O)C(C)OC(=O)c2ccc(NS(=O)(=O)c3ccc(F)c(F)c3)cc2)cc1 (stereo not drawn),-6.98%
3,Nc1nonc1-n1nnc(C(=O)N/N=C/c2c[nH]c3ccccc23)c1-c1ccccc1,12.5%
4,COc1ccc2nc(COC(=O)c3ccco3)c(C(C)=O)[n+]([O-])c2c1,1.79%
5,COc1ccc(CCNC(=O)C(C)SCc2ccccc2)cc1 (stereo not drawn),-12.8%
6,O=C(O)C(=O)O.O=C(c1ccncc1)N1CCN(C2CCC(c3ccccc3)CC2)CC1 (stereo not drawn),-63.4%
7,CCOc1ccc(C(=O)OCC(=O)NCc2ccccc2)cc1OCC,-14.2%
8,Cc1ccc(NC(=O)COC(=O)c2ccco2)cc1C,2.35%
9,COc1ccc(C)cc1-n1nnnc1SCC(=O)c1cc(C)n(Cc2ccco2)c1C,-9.73%
10,CC1CN(C(=O)N(C)C)CCN1C(=O)N(C)C (stereo not drawn),9.65%
11,N#C/C(=C/c1ccc(CNC(=O)C(=O)Nc2cc(Cl)cc(Cl)c2)o1)C(=O)NCc1cccnc1,-0.368%
12,CCOc1ccccc1NC(=O)C1COc2ccccc2O1 (stereo not drawn),14.4%
13,Cc1cc2n(n1)C(c1sccc1C)Nc1ccccc1-2 (stereo not drawn),-15.9%
14,CN(C)c1ncc(C2=C(Cl)C(=O)C(N3CCCC3)=C(Cl)C2=O)s1,0.566%
15,O=C(Nc1cccc(F)c1)C1CCN(C(=O)c2ccco2)CC1,-26.4%
16,C=CCn1c(CSc2nnc(-c3ccccc3)n2C)n[nH]c1=S,16.7%
17,COc1cc(C(=O)Nc2cc(C)cc(C)c2)c(-n2cnnn2)cc1OC,14.7%
18,Cc1cc(Br)ccc1NC(=O)C1CCN(C(=O)c2ccco2)CC1,-19.8%
19,CCOC(=O)Cn1nnc2c(sc3nc4c(c(-c5ccc(Cl)cc5)c32)CCC4)c1=O,-6.78%
20,CCCCC(=O)Nc1ccc(NC(=O)c2ccc(C)c([N+](=O)[O-])c2)cc1OC,-2.74%
21,O=C(CCc1ccccc1)Nc1nncs1,15.9%
22,O=C(N/N=C/c1ccncc1)/C(=C/c1ccccc1)NC(=O)c1ccccc1,-2.14%

row,Structure (SMILES),"hERG current change (%, negative = inhibition) at 10uM"
1,C=CCN1C(=O)C(O)(CC(=O)c2c(C)n[nH]c2C)c2cc(Br)ccc21 (stereo not drawn),14.3%
2,O=C(NC(Cc1ccccc1)C(=O)O)/C(=C/c1ccc([N+](=O)[O-])cc1)NC(=O)c1ccccc1Br (stereo not drawn),3.63%
3,Fc1ccc(C2N3CCCN23)cc1 (stereo not drawn),11.6%
4,COc1ccccc1N1CCN(CCN2C(=O)C3CCCN3C2=O)CC1 (stereo not drawn),12%
5,O=C(CCNC(=O)c1ccc(Br)o1)NCc1ccccc1Cl,-2.73%
6,CCNC(=O)CSc1nc2ccccc2c(=O)n1OC,7.09%
7,COc1cc(-c2nc3c(c(C)nn3-c3ccccc3)c3cc(OC)c(OC)cc23)ccc1O,6.95%
8,Cc1[nH]c2ccccc2c1/C=N/NC(=S)NC(C)C,12.1%
9,Cc1cc(F)ccc1S(=O)(=O)N1CCCCC1CCNC(=O)C(=O)NCc1ccccn1 (stereo not drawn),-61.4%
10,CCn1c(SC(C)C(=O)Nc2ccc3c(c2)OCCO3)nnc1C1CC1 (stereo not drawn),10.7%
11,O=C(CNC(=O)c1ccc(F)cc1)N/N=C/c1ccc(O)c([N+](=O)[O-])c1,-1.79%
12,CCC(Oc1ccccc1)C(=O)NC1C(=O)N2C1SC(C)(C)C2C(=O)[O-].[K+] (stereo not drawn),2.88%
13,Cc1cc(Cl)ccc1OCC(=O)NCCOc1nc(N2CCOCC2)nc(N2CCOCC2)n1,-43.5%
14,COc1ccc(-c2noc(N3CCC(C(=O)NC(C)c4ccccc4)CC3)n2)cc1 (stereo not drawn),-30.6%
15,CN(C(=O)COC(=O)c1nc(Cl)ccc1Cl)c1ccccc1,17.6%
16,CC1(C)CC(=O)C(C=NCc2ccc3c(c2)OCO3)=C(O)C1,3.48%
17,CCCSc1nc2c(cnn2-c2ccc(C)cc2)c(=O)[nH]1,11.5%
18,Cc1ncc(S(=O)(=O)c2ccc(Cl)cc2)c(-c2ccccc2)n1,-0.432%
19,CCOc1ccc(-n2c(SCC(=O)O)nc3sc4c(c3c2=O)CCCC4)cc1,18.5%
20,N#Cc1c(NC(=O)C(=O)NCCCN2CCOCC2)sc2c1CCCC2,-14.7%
21,O=C(NN1C(=O)NC2(CCCCC2)C1=O)c1ccc(Cl)s1,12.9%
22,O=C(CCCn1c(SCC(=O)c2ccc(Cl)cc2)nc2ccccc2c1=O)NCc1ccco1,3.21%

row,Structure (SMILES),"hERG current change (%, negative = inhibition) at 10uM"
1,COC(=O)CP(=O)(c1ccccc1)c1ccccc1,15.2%
2,O=C1/C(=C\c2ccco2)CCC/C1=C\c1ccco1,2.1%
3,CCOC(=O)c1[nH]c(C)c(C(=O)NCc2cccnc2)c1C,-0.0907%
4,O=c1c(C=Nc2ccc(Oc3ccccc3)cc2)c[nH]n1-c1cccc(Cl)n1,5.05%
5,Nc1ccc2oc(CCc3ccccc3)nc2c1,-4.16%
6,CCOc1ccc(N/C=C/C(=O)c2ccc(C)cc2)c([N+](=O)[O-])c1,7.59%
7,CC(C(=O)NC1CCCCCC1)c1ccc([N+](=O)[O-])cc1 (stereo not drawn),4.76%
8,COc1cccc(NC(=S)N2C3CCCC2CC(NC(=O)C2CC2)C3)c1 (stereo not drawn),9.08%
9,COCc1cc(C)nc(OCC(=O)N/N=C/c2cc(C)n(-c3c(C)cccc3C)c2C)c1C#N,2.09%
10,CCOc1ccccc1N(C)C(=O)c1ccc2c(=O)n3c(nc2c1)CCCCC3,0.237%
11,CCn1c(CN2CCCCC2)nc2cc(S(=O)(=O)N3CCCCC3)ccc21,-19%
12,CC(C)CCNC(=O)Cn1c(NCCC(C)C)nc2c1c(=O)n(C)c(=O)n2C,-6.85%
13,COc1ccccc1N1CCN(C(=O)C2CCN(C(=O)c3cccc(Cl)c3)CC2)CC1,-0.573%
14,COc1ccc(N2CCN(S(=O)(=O)CCNC(=O)C3CCCCC3)CC2)cc1,5.98%
15,COCCOc1cc(COC)nc(-c2cccc(C)c2)n1,6.85%
16,CC(CN1CCN(C)CC1)OC(=O)c1cccc(Cl)c1.Cl (stereo not drawn),-10.6%
17,Cc1c(CN2CCc3c([nH]c4ccccc34)C2CC(C)C)cnn1C (stereo not drawn),-36%
18,O=C(C1CCCN(Cc2nc(-c3cccs3)no2)C1)N1CCOCC1 (stereo not drawn),9.96%
19,CC(C)CC(=O)Nc1nc2ccc(S(C)(=O)=O)cc2s1,2.14%
20,O=C1CN(C(=O)N[C@@H](Cc2ccccc2)C(=O)N[C@H](C(=O)O)c2ccccc2)c2ccccc2N1,18.4%
21,C=CCOc1ccc(/C=C/C(=O)OCC(=O)NCC(=O)Nc2c(C)cc(C)cc2C)cc1,4.82%
